Source: the BET-seq Pho4 binding data (Le et al. 2018)
The other results are listed elsewhere or left out. These are noisy estimates, calculated here from bound and input reads.

Target: T1, Pho4 (S. cerevisiae) (UniProt P07270)
T1 sequence: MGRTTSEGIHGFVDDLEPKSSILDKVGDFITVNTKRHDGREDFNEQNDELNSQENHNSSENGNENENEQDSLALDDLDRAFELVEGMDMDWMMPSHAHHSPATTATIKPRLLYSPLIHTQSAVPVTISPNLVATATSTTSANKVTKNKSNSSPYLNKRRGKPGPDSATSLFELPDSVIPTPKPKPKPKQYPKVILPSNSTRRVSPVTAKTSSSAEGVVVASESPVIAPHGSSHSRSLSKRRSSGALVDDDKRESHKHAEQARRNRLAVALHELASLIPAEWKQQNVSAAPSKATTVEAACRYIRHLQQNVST
Assay: relative binding free energy (BET-seq); higher = weaker binding
Conditions: reference: library average

Sequence	relative binding free energy [kcal/mol]
TGGAGCACGTGGAGTG	-0.02
TTTTACACGTGAGTTT	0.4
AAAATCACGTGAGGGA	0.35
TAGTACACGTGTAGTG	0.16
GTCAGCACGTGGGGCA	-0.15
ATTTGCACGTGTGGCA	0.08
GGAGGCACGTGCGTGT	-0.1
TGCATCACGTGATTTT	0.3
GATTGCACGTGGGATT	0.08
TCAGACACGTGTTTGT	-0.06
ACTGTCACGTGGGAGT	-0.05
GTCATCACGTGTGATT	0.19
ACTTTCACGTGGATTG	0.21
GTTGGCACGTGGGGAA	-0.16
TTGATCACGTGTGGTA	0.21
TGGTACACGTGATCGG	0.21
GCTTTCACGTGGTGGG	0.28
TCTAGCACGTGTTTTA	-0.08
AATTGCACGTGGGTGC	-0.13
TGGTACACGTGAAATT	0.26
GGGGGCACGTGAGGAA	0.11
TGGAGCACGTGATGGT	0.06
AAGGTCACGTGTGGGC	0.12

Sequence	relative binding free energy [kcal/mol]
AGAGGCACGTGTTAAT	-0.04
GTAGGCACGTGAGGAA	0.14
GTAAGCACGTGGCGGA	-0.13
GTGGACACGTGATTGA	0.17
GATCACACGTGGAGTT	0.41
ATTCGCACGTGTAGTT	0.06
GTGAACACGTGAGGGT	0.24
AGAGTCACGTGGCGTG	-0.03
AAAGGCACGTGGTTTC	-0.1
TAGTACACGTGGAGGT	0.06
GGCTGCACGTGGACGG	0.15
TGTGGCACGTGTCAAT	0.01
GTATGCACGTGGAGGC	-0.13
TTAATCACGTGGTGGG	0.06
GTAGGCACGTGTAGGT	-0.01
AAAGGCACGTGAAATT	0.27
ATGTACACGTGGTGAG	0.02
TTTAGCACGTGTGTGG	-0.02
GGTCTCACGTGTAAAT	0.46
GTAGGCACGTGGCCTG	-0.21
GTAGCCACGTGTTTGG	0
TGGCGCACGTGTGAGA	0.18
TGTGACACGTGAGGAG	0.13

Sequence	relative binding free energy [kcal/mol]
TTGTTCACGTGTGTAC	0.24
AAAGTCACGTGGGAAT	0.07
GGAATCACGTGGGAAT	0.23
ACGATCACGTGATTGG	0.33
CATGACACGTGGTATT	0.04
TTTCGCACGTGTGAAG	0.1
ACGAGCACGTGAGTGG	0.06
TGAGGCACGTGTTCGA	-0.18
TAGTTCACGTGGGTTC	0.08
CTTTACACGTGGGCGT	0.06
GATTACACGTGCTGGT	0.05
TGGTTCACGTGGTGTT	0.29
GGGTTCACGTGTCCGT	0.22
TAGAGCACGTGGTCGG	-0.26
GGTCTCACGTGTAGAA	0.43
AGTGTCACGTGGGTTG	-0.1
ATATGCACGTGGTAAA	0.01
TGGGACACGTGTCGTA	0.07
ATGAACACGTGGGATT	-0.05
GTCGGCACGTGGTATG	-0.12
GGTGGCACGTGCGAGA	-0.06
AATGGCACGTGCGAGG	-0.21
TTCGACACGTGAATTG	0.32

Sequence	relative binding free energy [kcal/mol]
GTAAACACGTGTTTTA	0.02
GGGTGCACGTGAGGAT	0.31
AAGTACACGTGATATG	0.14
TTTATCACGTGACTGT	0.39
AGGTGCACGTGTAAGC	-0.01
GGGAGCACGTGCTAGG	-0.31
AGCGTCACGTGCGGTT	0.03
GGGGTCACGTGGATTC	0.28
GTATGCACGTGCGTAG	-0.05
AAGCTCACGTGGTAGG	0.28
GAATGCACGTGAAAGG	0.32
AGGGGCACGTGAAAAT	0.3
GATCGCACGTGGGGGC	-0.14
AGTCACACGTGGGTGC	-0.15
CTCGGCACGTGTAGGT	-0.11
TTTCTCACGTGTTTTT	0.24
GTATTCACGTGAATGT	0.45
GATCTCACGTGTGGTG	0.14
TAGGGCACGTGTACAG	-0.16
GGTGACACGTGTCGTT	0.19
GCTGTCACGTGAGTAT	0.24
TGGGCCACGTGAGGGG	0.05
GGATTCACGTGCGGGG	0.31

Sequence	relative binding free energy [kcal/mol]
ATGCACACGTGGGTAG	-0.07
AGGGGCACGTGGTATT	-0.18
ACTTGCACGTGTTGTT	0.13
GGGTTCACGTGATTAC	0.55
AAGAGCACGTGTATTG	-0.15
GTTAACACGTGTGTGA	0.08
CGCGACACGTGAGGTT	0.26
CGTCTCACGTGAGGTG	0.37
TTTATCACGTGGCTGA	0.23
TAGTACACGTGGGTCG	-0.23
TGAGTCACGTGTGAAG	0.11
TTCGGCACGTGTTTGA	-0.23
TAAAACACGTGGTAGG	-0.11
TAGGTCACGTGTCGTG	0.11
TTATTCACGTGGGCGA	0.12
GTTTCCACGTGAGGGT	0.35
TATTTCACGTGTTGCA	0.26
TAAGCCACGTGGGCTG	-0.15
GGCTGCACGTGATTTG	0.41
TAAGACACGTGGATTG	0.06
CAATGCACGTGGGGAT	-0.28
GATTTCACGTGGATTT	0.27
AATCTCACGTGGTGTG	0.23
